Literature values as cited in patent publication US4442087A (priority 1979, dated 1984).

Conditions: cited from earlier work; for IF-inducing activity on heating: 56 °C for 5 hours; for IF-inducing activity: literature

Substance | IF-inducing activity on heating | IF-inducing activity | IF-inducing activity (listed as phytohemagglutinin (PHA))
phytohemagglutinin | inactivated | very weak | extremely low
pokeweed mitogen | inactivated |  | 

Like-named read-outs stand apart in the source and are kept apart here.
